# The campaign covered roughly 52,000 compounds. About 1,700 (3.3%) were called active. Rule as the data show it: active = survival mostly below about 52% (no sharp cut-off); inactive = mostly above about 56%. The list shows a part of the results.
# System: Wild type
# Assay: S. aureus survival, RN4220 and DeltatarO strains – OD600, teichoic acid synthesis inhibitors, primary screen (AID 463173)
# Conditions: S. aureus RN4220 wild type/DeltatarO growth, OD600, 18 h, active compounds read low, screened at 18.75 µg/mL (by protocol)
row,Compound,survival
1,O=C(NCc1ccccc1)c1ccc(CSc2nc3cccnc3n2Cc2ccccc2F)cc1,inactive: 95%
2,O=C(NCCOCCn1c(=O)oc2ccccc21)Nc1ccc(F)cc1,inactive: 88%
3,COc1ccc(OCC(=O)Nc2cccc(-c3nc4ccccc4s3)c2C)cc1,inactive: 118%
4,COc1ccccc1OCC(=O)Nc1nc(-c2ccc(Br)cc2)ns1,inactive: 79%
5,Cc1nc(N2CCCC2)ncc1C(=O)Nc1ccc(F)cc1F,inactive: 138%
6,Cc1cc2c(cc1S(=O)(=O)N(CCN(C)C)Cc1ccco1)OCC(=O)N2,inactive: 88%
7,Cc1ccc(S(=O)(=O)c2cn(C)c3cc(N4CCCC(C)C4)c(F)cc3c2=O)c(C)c1 (centres undefined),inactive: 81%
8,CC(C)N(Cc1ccccc1)C(=O)CCS(=O)(=O)c1ccc2c(c1)oc(=O)n2C,inactive: 124%
9,Cc1ccc(NC(=O)C2CCN(S(=O)(=O)c3c(C)noc3/C=C/c3ccco3)CC2)cc1C,inactive: 79%
10,Cc1ccc(CN2CCc3nc(N4CCN(C)CC4)ncc3C2)s1,inactive: 99%
11,CC(C)(C)CC(=O)NC1CC(=O)N(c2ccc3c(c2)OCCO3)C1 (centres undefined),inactive: 124%
12,O=C1OC(Nc2ccc3ncccc3c2)c2ccccc21 (centres undefined),inactive: 85%
13,O=C(c1ccc2c(c1)N(Cc1ccccc1F)C(=O)c1ccccc1S2=O)N1CCOCC1 (centres undefined),inactive: 86%
14,Cc1c(Cl)cccc1NC(=O)Cn1cnc2nc3c(cc2c1=O)CCCC3,inactive: 131%
15,Cc1ccc(-n2ncc3c(N4CCC(Cc5ccccc5)CC4)ncnc32)cc1,inactive: 70%
16,O=C(NCC1CCCO1)c1c[nH]c2ccc(S(=O)(=O)Nc3cccc(C(F)(F)F)c3)cc2c1=O (centres undefined),inactive: 74%
17,CCc1ccc(C(=O)c2cn(CC(=O)Nc3ccc(C)c(C)c3)c3ccccc3c2=O)cc1,inactive: 135%
18,Cc1ccc2c(c1)cc1c(=O)n(CC(=O)N3CCCCC3)nc(C)n12,inactive: 79%
19,Cc1cccc(N(C)C(=O)CSc2nc3ncccc3o2)c1,inactive: 63%
20,CN(Cc1ccccc1)S(=O)(=O)c1nnc(NC(=O)c2ccccc2)s1,inactive: 35%
21,COc1ccc2c(c1)c1c(c(=O)n(-c3ccccc3)c(=O)n1CC(=O)Nc1ccc(C)c(C)c1)n2C,inactive: 82%
22,N#Cc1ccc(CSc2nc3c(c(=O)[nH]2)CCCC3)cc1,inactive: 94%
23,CC(C)C1CC(c2csc(N)n2)CCO1 (centres undefined),inactive: 105%

row,Compound,survival
1,Cc1cccc(N(C)C(=O)CCNS(=O)(=O)c2ccc3c(c2)CCN3C(=O)C2CC2)c1,inactive: 78%
2,Cc1sc2nc(SCC(=O)N(CCO)CCO)nc(N)c2c1C,inactive: 99%
3,COC(=O)CCn1cnc2onc(-c3cc(F)cc(F)c3)c2c1=O,inactive: 78%
4,Cc1ccc(C)c(CS(=O)(=O)c2cn(CC(=O)N(C(C)C)C(C)C)c3ccccc23)c1,inactive: 77%
5,CC(C)Sc1ncc(Cl)c(C(=O)Nc2ccc(S(=O)(=O)N(C)c3ccccc3)cc2)n1,inactive: 78%
6,Fc1ccc2ncc3c(-c4ccccc4)n[nH]c3c2c1,inactive: 84%
7,Cn1ncc2c(Nc3cccc(F)c3)ncnc21,inactive: 127%
8,O=C(Nc1c(C(=O)Nc2ccccc2F)oc2ccccc12)c1cc2ccccc2o1,inactive: 42%
9,COc1cc(NC(=O)CN2CCN(CC(=O)Nc3ccc(F)cc3)CC2)cc(OC)c1,inactive: 67%
10,COc1cc(C(CC(=O)NCCC(C)C)N2Cc3ccccc3C2=O)cc(OC)c1OC (centres undefined),inactive: 128%
11,CCN(C(=O)CCc1nc(-c2ccc(C)cc2)no1)c1cccc(Cl)c1,active: -1%
12,Cc1ccc(-c2nc(NC(=O)CSc3ccc4ccccc4n3)ns2)cc1,inactive: 83%
13,C1Cc2nn3c(c2C1)n1nc2c(c1n1nc4c(c31)CCC4)CCC2,inactive: 95%
14,CCN1CC=C2C(C#N)=C(N)C(C#N)(C#N)C(c3ccc(OC)c4ccccc34)C2C1 (centres undefined),inactive: 114%
15,Cc1ccccc1OCC(=O)Nc1ccc(C(=O)OCc2cc(=O)n3ccsc3n2)cc1,inactive: 128%
16,Cc1ccccc1NC(=O)c1nc(S(C)(=O)=O)ncc1N(Cc1ccco1)Cc1sccc1C,inactive: 81%
17,CCN(CC)C(=O)c1sc(NC(C)=O)c(C(=O)OC)c1C,inactive: 108%
18,COC(=O)c1cc2sccc2n1CC(=O)Nc1ccc(C)cc1C,inactive: 81%
19,COc1cc2c(cc1OC)C(COc1ccc3c(C)cc(=O)oc3c1)N(C(=O)Cc1ccccc1)CC2 (centres undefined),inactive: 94%
20,Cc1ccc(S(=O)(=O)c2cn(Cc3ccccc3)c3cc(N4CCCC4)c(F)cc3c2=O)cc1,inactive: 68%
21,Cc1cc(C)c(Cn2c3ccccc3c3cnn(CC(=O)NCCC4=CCCCC4)c(=O)c32)c(C)c1,inactive: 72%
22,COc1cccc(CNC(=O)c2ccc3nc(-c4ccccc4)c(-c4ccccc4)nc3c2)c1OC,inactive: 71%
23,CCOc1ccccc1C(=O)NC1(C(F)(F)F)C(=O)Nc2c1c(=O)[nH]c(=O)n2-c1ccccc1 (centres undefined),inactive: 68%

row,Compound,survival
1,CCC(C)Sc1oc(-c2ccco2)nc1S(=O)(=O)c1ccc(Cl)cc1 (centres undefined),inactive: 25%
2,Cc1sc2nc(SCC(=O)NCCCN3CCOCC3)[nH]c(=O)c2c1C,inactive: 106%
3,COc1ccc(Nc2nnc(-c3ccc(C)c(S(=O)(=O)NCc4nc5ccccc5[nH]4)c3)c3ccccc23)cc1,inactive: 131%
4,CN(C)CC[n+]1ccc(C(=O)c2ccccc2)cc1,inactive: 109%
5,Clc1ccc(-c2csc(-c3nc(-c4ccc(Br)s4)cs3)n2)cc1,inactive: 69%
6,O=C(NCc1ccc(Cl)cc1)c1ccc2c(c1)NC(=O)C(CS(=O)(=O)Cc1ccc(F)cc1Cl)N2 (centres undefined),inactive: 83%
7,Cc1ccc(NC(=O)Cn2nnc(C(=O)NCCc3ccccc3)c2N)cc1,inactive: 79%
8,COc1ccc(C)cc1NC(=O)c1cc2ccccn2n1,inactive: 71%
9,O=C(CCC1CCCC1)N1CCN(C2CCCCC2)CC1,inactive: 104%
10,O=C(CCN1CCN(CCO)CC1)Nc1ccc(Br)cc1,inactive: 70%
11,CCc1ccc(NC(=O)C2CCCN(S(=O)(=O)c3cccc4nsnc34)C2)cc1 (centres undefined),inactive: 76%
12,Cc1cccc(CN2C(=O)c3ccccc3S(=O)(=O)c3ccc(C(=O)N(C)Cc4ccccc4)cc32)c1,inactive: 94%
13,Cc1ccc(Nc2c(-c3ccc(N4CCOCC4)cc3)nc3cccc(C)n23)cc1,inactive: 87%
14,O=C1CC(c2nnc(Cc3c(F)cccc3Cl)o2)CN1c1ccccc1 (centres undefined),inactive: 102%
15,Cc1ccc(NC(=O)c2c(C)nc3sc(C(=O)Nc4ccc(F)cc4)c(N)c3c2-c2ccc(Cl)cc2)c(C)c1,inactive: 70%
16,COc1cccc(NC(=O)CCc2nnc3n(Cc4ccccc4Cl)c(=O)c4ccccc4n23)c1,inactive: 84%
17,COC(=O)C1=C(C)OC(N)=C(C#N)C1c1cc2ccc(C)cc2[nH]c1=O (centres undefined),inactive: 113%
18,Cc1ccc(NCc2nnc(SCC(=O)N3CCOCC3)o2)c(C)c1,inactive: 109%
19,CCOc1ccccc1C(=O)Nc1ccc(-n2nncc2-c2ccccc2)cc1,inactive: 140%
20,COc1ccccc1C(=O)Nc1nnc(S(=O)(=O)N2CCN(c3ccc(F)cc3)CC2)s1,inactive: 78%
21,CCOC(=O)c1ccc(NC(=O)c2sc3ccccc3c2Cl)cc1,inactive: 78%
22,Cc1ccc(-c2nnc3ccccc3c2C(=O)Nc2ccc(C)c(F)c2)cc1,inactive: 74%
23,CCOC(=O)c1ccc(NC2(c3ccccc3)C(=O)c3ccccc3C2=O)cc1,inactive: 89%

row,Compound,survival
1,COc1cc(OC)c(NS(=O)(=O)c2cc3c(cc2C)N(C(C)=O)CCO3)cc1Cl,inactive: 79%
2,CCc1nnc(SCc2nc(-c3cccc(Cl)c3)oc2C)c2cc3sc(C)cc3n12,inactive: 85%
3,CN(C)CCN1C(=O)c2ccccc2C1=O,inactive: 106%
4,COc1ccccc1NC(=O)CN(c1cc(C)cc(C)c1)S(=O)(=O)c1c(C)[nH]c(=O)[nH]c1=O,inactive: 132%
5,CCC(C(=O)Nc1ccc(C(C)C)cc1)n1nc(C)n2c(cc3cc(C)ccc32)c1=O (centres undefined),inactive: 74%
6,NC(=O)c1c(NC(=O)c2cc(-c3ccc(F)cc3)on2)sc2c1CCCC2,inactive: 68%
7,Cc1cccc(NC(=O)Cn2nnc(C(=O)NCc3cccs3)c2N)c1,inactive: 89%
8,Cc1ccc(C)c(Cn2c(=O)cc(C(F)(F)F)c3c(C)nn(C)c32)c1,inactive: 99%
9,Cc1ccccc1C(=O)NCc1nc(-c2ccc(Cl)cc2)no1,inactive: 57%
10,CC(=O)Nc1cc(-c2ccc(Cl)cc2)[nH]n1,inactive: 100%
11,CN(C)c1ccc(CNC(=O)C2CCCN(S(=O)(=O)c3ccc4c(c3)CCCC(=O)N4)C2)cc1 (centres undefined),inactive: 128%
12,CC(=O)Nc1ccc(NC(NC(=O)c2ccco2)C(=O)c2ccc(Cl)cc2)cc1 (centres undefined),inactive: 99%
13,COc1ccc(Cl)cc1NC(=O)CCn1c(=O)c2cccn2c2ccccc21,inactive: 59%
14,CCOc1ccc2oc(=O)cc(CN3CCN(Cc4ccc(C)cc4)CC3)c2c1,inactive: 71%
15,Cc1ccc(Nc2c3c(nc4nc(-c5cccs5)nn24)CCCC3)cc1F,active: -3%
16,Cc1cc(OCCN2CCOCC2)nc(N2CCOCC2)n1,inactive: 97%
17,COc1ccc(N2C(=O)CSC23C(=O)N(Cc2cccc(C(F)(F)F)c2)c2ccccc23)cc1 (centres undefined),inactive: 73%
18,CN(CCc1ccccn1)C(=O)c1nn2c(C(F)(F)F)cc(-c3ccco3)nc2c1Cl,inactive: 104%
19,COc1ccccc1OCC(=O)N(Cc1cccs1)C1CCS(=O)(=O)C1 (centres undefined),inactive: 65%
20,Cc1ccc(S(=O)(=O)c2nc(-c3cccs3)oc2SCC(=O)Nc2cc(C)cc(C)c2)cc1,inactive: 83%

# From PubChem BioAssay AID463173 (ICCB-Longwood Screening Facility, Harvard Medical School, 2010)
